Results published in PubChem BioAssay AID686970 (National Center for Advancing Translational Sciences (NCATS), 2013).
In all, about 360,000 compounds went through this assay and about 6,000 (1.7%) were called active. The inconclusive results got no clear call from the source; some entries with a clear call stand among them for comparison. The call rests on the fitted dose curve; in most records, active means well fitted cell-killing curve with a large enough effect; inconclusive means small, poorly fitted or top-dose-only effect, or effect the other way; inactive means flat fitted curve, though single readings scatter. No potency is given beside an inconclusive call; the fits are too rough.

Assay: qHTS for induction of synthetic lethality in tumor cells producing 2HG: qHTS for the HT-1080-NT fibrosarcoma cell line;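 further: NT is the 2HG producing partner of a matched IDH1 knockdown line; nearly all actives have a fitted effect of over 55% in size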;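 on activity, negative = less viability: 0% = DMSO-treated cells and -100% = media-only wells without cells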
Settings: HT-1080-NT fibrosarcoma viability, CellTiter-Glo ATP luminescence, 48 h; activity, negative = less viability: at 46.1 µM (top of the series) unless noted
Outline: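 Viability by CellTiter-Glo luminescence after 48 h compound exposure at 37C of HT-1080-NT cells (750/well, RPMI, 5% FBS). % activity scaled between DMSO wells and medium-only wells, then curve-fitted and categorized by curve class.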
Potency means the concentration at half of the fitted maximal effect; tags describe the fitted curve by direction and shape.

Structure (SMILES)	Potency	activity, negative = less viability
Cc1ccc(NC(=O)c2ccc(S(=O)(=O)NCc3ccco3)cc2)cc1	inconclusive [cytotoxic, single point]	–
CC1=C(C(=O)N(C(C)C)C(C)C)CC(CC(=O)NCc2cccs2)C(=O)N1Cc1ccc(C(C)(C)C)cc1 (stereo unspecified)	inconclusive [cytotoxic, single point]	–
Cc1ccc2sc(NNC(=O)C3COc4ccccc4O3)nc2c1C (stereo unspecified)	–	inactive: -2.87%
CC1(C)Cc2nc3[nH]c(=S)[nH]c(=O)c3cc2CO1	–	inconclusive: -20% [cytotoxic]
COc1ccc(C(=O)Nc2cc([N+](=O)[O-])ccc2N2CCCC2)cc1	–	inactive: -4.74%
CCc1nc2ccc(C(=O)NCc3ccccc3OC)cn2c1N(C)Cc1ccc(OC)cc1	inconclusive [cytotoxic, single point]	–
O=c1[nH]c(CN2CCN(S(=O)(=O)c3cccs3)CC2)nc2c(Br)cc(Br)cc12	–	inconclusive: -1.59% [cytotoxic]
CCOC(=O)Cn1c(=O)oc2cc(S(=O)(=O)Nc3c(C)cc(C)cc3C)ccc21	inconclusive [cytotoxic, single point]	–
O=C(COC(=O)COc1ccc2ccccc2c1)NC1CCCc2ccccc21 (stereo unspecified)	–	inactive: 8.48%
COc1ccc(Cl)cc1N1CC(C(=O)Nc2nccs2)CC1=O (stereo unspecified)	inconclusive [cytotoxic, partial curve]	–
COc1ccc(-n2nc3c(N4CCC(C(=O)NCC(C)c5ccccc5)CC4)nnc(C)c3c2C)cc1 (stereo unspecified)	inconclusive [cytotoxic, single point]	–
CCCCC[C@H](C)N1C[C@H](COCc2ccccc2)Oc2cc(N3CC[C@@H](O)C3)ccc2S1(=O)=O	inconclusive [cytotoxic, single point]	–
CCOC(=O)c1sc2nc(C)nc(NCc3ccc(Cl)cc3)c2c1C	inconclusive [cytotoxic, single point]	–
O=S(=O)(c1ccc(Cl)cc1)N1CCN(C(=S)Nc2ccc(F)c(Cl)c2)CC1	inconclusive [cytotoxic, partial curve]	–
CCN(CC)C(=O)CSc1nc2ccccc2c(=O)n1CC1CCCCC1	inconclusive [cytotoxic, single point]	–
CN=C1SC(CC(=O)Nc2ccccc2F)C(=O)N1/N=C/c1ccc(O)c(OC)c1 (stereo unspecified)	inconclusive [cytotoxic, single point]	–
COc1ccc(NC(=O)CSCC(=O)N(C)CC(=O)Nc2cccc3ccccc23)cc1	inconclusive [cytotoxic, single point]	–
Nc1ccn([C@@H]2O[C@H](CNS(=O)(=O)c3cc4ccccc4s3)[C@@H](O)[C@H]2O)c(=O)n1	inconclusive [rising, single point]	–
COc1ccc(Cc2nnc(N/N=C/c3ccc(O)cc3O)[nH]c2=O)cc1OC	inconclusive [cytotoxic, full curve]	–
Cc1ccc2c(c1)N(S(=O)(=O)c1cc(-c3cc(C)no3)ccc1C)CCO2	inconclusive [cytotoxic, single point]	–
Cc1cc2c(cc1S(=O)(=O)NCc1ccccc1)n(C)c(=O)c(=O)n2C	–	inactive: -7.94%

Structure (SMILES)	Potency	activity, negative = less viability
Cc1ccc(S(=O)(=O)C2(C(=O)N3CCN(c4ccccc4F)CC3)CC2)cc1	inconclusive [rising, partial curve, poor fit]	–
CCCCNC(=O)[C@H]1C[C@H]1[C@@H](O)[C@H](CO)NC(=O)[C@H](Cc1ccccc1)NC(=O)OC(C)(C)C	–	inactive: 16.7%
Cc1ccc(NC(=O)C2=C(O)CCn3c2nc2ccccc23)cc1	inconclusive [cytotoxic, single point]	–
O=C(Nc1cccc(Cl)c1)C1=Cc2cc(Cl)ccc2OC1	inconclusive [cytotoxic, single point]	–
Cc1cccc(NC(=O)c2ccc(NS(=O)(=O)c3cccc4cccnc34)cc2)c1	inconclusive [cytotoxic, partial curve]	–
CCNC(=O)C1CCCc2c1[nH]c1ccc(Cl)cc21 (stereo unspecified)	–	inactive: -2.2%
COc1cc(NC(=O)C2=C(C)OCCS2)c(Cl)cc1C(=O)NCCCN1CCCC(C)C1 (stereo unspecified)	–	inactive: -6.88%
COc1ccc(/C=N/NC(=O)CCSc2nc3ccccc3s2)cc1	inconclusive [cytotoxic, single point]	–
COc1ccc(-c2cc(NC=O)c3ncc(-c4cccc(C(=O)NCCN(C)C)c4)n3c2)c(OC)c1	active: 18.4 µM	–
O=C(C1CCCCC1)N1C[C@H](n2cc(-c3ccc(F)cc3)nn2)[C@@H](O)C[C@@H]1c1ccc(Cl)cc1	inconclusive [cytotoxic, single point]	–
FC(F)C(F)(F)Oc1cccc(Nc2nccn3c(-c4cccc5ccccc45)cnc23)c1	inconclusive [cytotoxic, single point]	–
Cc1cccc(NC(=O)/C(C#N)=C/c2cccc([N+](=O)[O-])c2)n1	–	inactive: 6.07%
C#Cc1ccc(NC(=O)C2(C)CCN2C(=O)C2(c3ccccc3)CCCC2)cc1 (stereo unspecified)	inconclusive [cytotoxic, single point]	–
O=[N+]([O-])/C=C\c1ccc(N2CCOCC2)cc1	active: 20.6 µM	–
O=C(NCc1nnc(SCc2ccc(F)cc2)n1-c1ccc(F)cc1)C12CC3CC(CC(C3)C1)C2	inconclusive [cytotoxic, partial curve]	–
COc1ccc(NS(=O)(=O)c2cc(-c3cnc(C4CC4)o3)ccc2C)cc1	inconclusive [cytotoxic, partial curve]	–
CC(=O)c1c(C)[nH]c(C(=O)OCc2ccc(Br)cc2)c1C	inconclusive [cytotoxic, partial curve]	–
CCOC(=O)c1sc2nc(OCc3cccnc3)cc(C)c2c1N	–	inactive: 0.272%
O=C(c1ccc(Cl)c([N+](=O)[O-])c1)N(Cc1ccc(Cl)cc1)C1CCS(=O)(=O)C1 (stereo unspecified)	inconclusive [cytotoxic, partial curve, poor fit]	–
COc1ccc(CCNC(=O)C2CCC(=O)N2Cc2ccccc2Cl)cc1OC (stereo unspecified)	–	inactive: 9.74%
